Assay results as given in the supplement of paper PMC9334596.
Values joined by “and” are separate entries in the source; they are usually repeats but may differ in a detail not shown here. Equal entries are not always repeated. The full ranking holds about 5,300 compounds; the median of “PER2::LUC luminescence relative to vehicle control” is about 0.96, and the highest 2% start at about 1.3. The list shows a part of the results.

Tested on: mPer2Luc MEF
Test: PER2::LUC luminescence relative to vehicle control (fold of vehicle); higher = higher PER2::LUC reporter signal
Details: 10 µM
Method in brief: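 Compounds from commercial libraries were added at 10 μM to 384-well plates seeded 48 h earlier with ~3000 mPer2Luc mouse embryonic fibroblasts per well. The cells were kept in DMEM with 10% FBS at 37 °C and 5% CO2. Luminescence was read with ONE-Glo 24 h and 30 h after treatment, then an alamarBlue viability assay was run. Values are PER2::LUC luminescence relative to vehicle control, as fold change.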

SMILES | PER2::LUC luminescence (time after treatment 24 h) | PER2::LUC luminescence (time after treatment 30 h)
COc1cc2c(cc1OC)C1CC(=O)C(CC(C)C)CN1CC2 (stereo unspecified) | 1.13 | 0.914
CCCCC/C=C\C/C=C\C/C=C\C/C=C\CCCC(=O)Nc1ccc(O)cc1 | 1.22 | 1.24
CCNC(=O)[C@H]1O[C@@H](n2cnc3c(N)ncnc32)[C@H](O)[C@@H]1O | 1.06 | 1.03
COc1c2c(cc3c1OCO3)CC[N+](C)=C2 | 0.995 | 0.982
CC(=O)OCC1=C(C(=O)O)N2C(=O)[C@@H](NC(=O)CCC[C@@H](N)C(=O)O)[C@H]2SC1 | 0.806 and 0.976 | 1.08 and 0.911
O=C1CN=C(c2ccccc2)c2cc([N+](=O)[O-])ccc2N1 | 0.971 | 0.769
Cc1ccc(S(=O)(=O)N[C@@H](CCCCN)C(=O)CCl)cc1 | 1.11 | 1.03
CCCN1CCC[C@@H](c2cccc(O)c2)C1 | 0.913 | 0.87
CN1C(=O)COc2c(C(=O)NC3CN4CCC3CC4)cc(Cl)cc21 (stereo unspecified) | 0.845 and 0.723 and 0.393 | 0.823 and 0.799 and 0.544
CCOC(OCC)P(=O)(O)CCCN | 1.05 | 1.01
NC(=O)C[S+]([O-])C(c1ccccc1)c1ccccc1 (stereo unspecified) | 1.02 | 0.986
Cc1cc(SCc2sc(-c3ccc(C(F)(F)F)c(F)c3)nc2C)ccc1OCC(=O)O | 1.03 | 1.21
C=C1[C@@H](C)[C@H]2[C@H](Cc3ccccc3)NC(=O)[C@]23OC(=O)/C=C/[C@H](O)CCC[C@@H](C)C/C=C/[C@H]3[C@@H]1O | 0.353 | 0.305
CC(C)(C)[C@]1(O)CC2OC(=O)CC23C(=O)OC2OC(=O)[C@H](O)C231 (stereo partly specified) | 1.09 | 1.09
CC[C@@H]1/C=C/C=C/C[C@H](C)[C@H](O)[C@](C)(O)C(=O)[C@H](C)[C@@H](O)[C@H](C)C(=O)[C@H](C)[C@@H](O)[C@H](C)/C=C/C(=O)O[C@H]2[C@@H](C)[C@@H](CC1)O[C@@]1(CC[C@@H](C)[C@@H](C[C@H](C)O)O1)[C@@H]2C | 0.37 | 0.402
CC[C@@H](C(=O)O)[C@@H]1O[C@@H]([C@@H](C)[C@H](O)[C@H](C)C(=O)[C@H](CC)[C@H]2O[C@]3(C=C[C@@H](O)[C@]4(CC[C@@](C)([C@H]5CC[C@](O)(CC)[C@H](C)O5)O4)O3)[C@H](C)C[C@@H]2C)[C@@H](C)C[C@@H]1C | 0.201 | 0.184
CN1CCN(C(=O)OC2c3nccnc3C(=O)N2c2ccc(Cl)cn2)CC1 (stereo unspecified) | 0.806 | 0.82
Clc1ccc(C(OCCN2CCCCC2)c2ccccc2)cc1 (stereo unspecified) | 0.798 | 0.799
C[C@@H](CO)NC(=O)[C@@H]1C=C2c3cccc4[nH]cc(c34)C[C@H]2N(C)C1 | 0.963 | 0.89
CC1=C[C@]23C(=O)[C@@H](C=C(COC(=O)c4ccccc4)[C@@H](O)[C@]2(O)[C@H]1OC(=O)c1ccccc1)[C@H]1[C@@H](C[C@H]3C)C1(C)C | 0.86 | 0.807
Clc1ccccc1C(c1ccccc1)(c1ccccc1)n1cccn1 | 1.12 | 1.04
O=C(O[C@H]1C[N+]2(CCCOc3ccccc3)CCC1CC2)C(O)(c1cccs1)c1cccs1 | 1.04 | 1.01
CC(=O)O[C@H]1[C@H]2O[C@]23[C@@H]2CC[C@@H]4C[C@@H](O)CC[C@]4(C)[C@H]2CC[C@]3(C)[C@H]1c1ccc(=O)oc1 | 0.932 | 0.916
O=C(N[C@H]1CN2CCC1CC2)c1cc2cccc(Cl)c2s1 | 0.706 | 0.682
NCCc1c[nH]c2ccccc12 | 1.05 and 1.06 | 1.01 and 0.941
C[C@]12CC[C@H](O)C[C@H]1CC[C@@H]1[C@@H]2C[C@@H](O)[C@]2(C)[C@@H](C3=CC(=O)OC3)CC[C@]12O | 0.984 | 1.09

SMILES | PER2::LUC luminescence (time after treatment 24 h) | PER2::LUC luminescence (time after treatment 30 h)
Clc1ccc(N2C[C@H]3CC[C@@H](C2)N3)nn1 | 0.869 | 0.799
CCc1c(C(=O)OC)ncc2[nH]c3cc(OC)c(OC)cc3c12 | 0.922 | 0.848
N[C@H](C(=O)O)c1cc(O)no1 | 0.953 | 1.02
c1cc2c(cc1[C@H]1OC[C@H]3[C@@H]1CO[C@H]3c1ccc3c(c1)OCO3)OCO2 | 1.15 | 1.17
CC(=O)OCC1=C[C@H]2[C@@H]3C(C)(C)[C@]3(OC(=O)Cc3ccccc3)C[C@@H](C)[C@]2(O)[C@@H]2C=C(C)C(=O)[C@@]2(O)C1 | 1.21 | 1.09
C#CCN(C)[C@H](C)Cc1ccccc1 | 0.941 and 0.895 | 0.893 and 0.934
COc1ccc2c3c([nH]c2c1)[C@H](CC(C)C)N1C(=O)[C@H](CCC(=O)OC(C)(C)C)NC(=O)[C@@H]1C3 | 0.871 | 0.868
CN1CCN(c2nc3ccccc3nc2Cl)CC1 | 1.01 | 1.01
CCNC1=Nc2ccc(Cl)cc2C(C)(c2ccccc2)O1 (stereo unspecified) | 1.07 and 0.939 | 0.917 and 1.01
C[C@@H]1O[C@@H](O[C@@H]2C=C3CC[C@@H]4[C@H](CC[C@]5(C)[C@@H](c6ccc(=O)oc6)CC[C@]45O)[C@@]3(C)CC2)[C@H](O)[C@H](O)[C@H]1O | 0.969 | 0.909
CN(C)C(=O)Oc1ccc[n+](C)c1 | 0.856 and 0.593 | 0.965 and 1.06
NCCc1ccccc1 | 1.03 | 1.04
CC[C@H]1CN2CC[C@H]1C[C@H]2[C@H](O)c1ccnc2ccc(OC)cc12 | 0.777 | 0.861
COc1ccc(/C=C/c2cc(O)cc(O)c2)cc1 | 1.69 | 1.76
C=CCN1CC[C@]23CCCC[C@H]2[C@H]1Cc1ccc(O)cc13 | 0.896 | 0.84
CC(=O)Nc1cc([As](=O)(O)O)ccc1O | 1.04 and 1.02 | 1.06 and 0.878
C/C=C(\C)C(=O)O[C@H]1C[C@@H](OC(C)=O)[C@@]2(C(=O)OC)CO[C@H]3[C@@H](O)[C@@](C)([C@]45O[C@@]4(C)[C@H]4C[C@@H]5O[C@@H]5OC=C[C@@]54O)[C@H]4[C@]1(CO[C@]4(O)C(=O)OC)[C@@H]32 | 0.966 | 0.924
Cc1cc2c(C(C)C)c(O)c(O)c(C=O)c2c(O)c1-c1c(C)cc2c(C(C)C)c(O)c(O)c(C=O)c2c1O | 0.631 | 0.7
O=C(O)/C=C/CO | 1.02 | 0.97
CCCN1CC[C@@H]2c3cc(O)ccc3CC[C@@H]21 (racemic) | 0.904 | 1.04
O=c1[nH]c2ccccc2n1C1CCN(CCCC(c2ccc(F)cc2)c2ccc(F)cc2)CC1 | 0.715 | 0.71
COc1cc2c(cc1F)C(c1ccccc1Cl)=Nc1c(n[nH]c1C)N2 | 0.461 | 0.367
O=C(O[C@H]1CN2CCC1CC2)N(Cc1cc(F)c(F)c(F)c1)c1cccc(F)c1 | 0.705 | 0.788
CC(=O)[O][Hg][c]1ccccc1 | 0.604 | 0.585
CC(C)C[C@H](NC(=O)[C@H](Cc1ccccc1)NC(=O)CNC(=O)[C@H](NC(=O)[C@@H](N)Cc1ccc(O)cc1)[C@H](C)O)C(=O)N[C@@H](C(=O)O)[C@@H](C)O | 0.94 | 0.916
CC(=O)NCCc1c[nH]c2ccccc12 | 0.923 | 0.996

SMILES | PER2::LUC luminescence (time after treatment 24 h) | PER2::LUC luminescence (time after treatment 30 h)
C[C@@H]1[C@H](O)[C@@H](C)/C=C/C=C/CC/C=C/C=C/C=C/C=C/[C@H](O[C@H]2O[C@@H](C)[C@H](O)[C@@H](N)[C@H]2O)C[C@@H]2O[C@](O)(C[C@@H](O)[C@H](O)CC[C@@H](O)C[C@@H](O)C[C@@H](O)CC(=O)O[C@H]1C)C[C@H](O)[C@H]2C(=O)O | 1.08 | 0.928
Nc1ccc(CCN2CCN(c3cccc(C(F)(F)F)c3)CC2)cc1 | 0.898 | 0.788
COc1cccc2c1cc([N+](=O)[O-])c1c(C(=O)O)cc3c(c12)OCO3 | 1.32 and 1.11 | 0.955 and 1.05
COP(=S)(OC)Oc1cc(Cl)c(Cl)cc1Cl | 1.12 | 0.813
NCCc1c[nH]c2ccc(C(N)=O)cc12 | 1.02 | 0.977
COc1cc2occc2c2oc(=O)ccc12 | 0.853 | 0.853
CCCCCCCCC(=O)NCc1ccc(O)c(OC)c1 | 0.977 | 0.997
CC(C)c1ccc2c(c1O)CC[C@H]1C3=C(CC[C@]21C)C(=O)OC3 | 0.736 | 0.86
Nc1ccc([As](=O)(O)O)cc1 | 0.989 and 0.943 | 1.04 and 0.896
CC1(C)[C@@H](O)C[C@H]2[C@](C)(O)[C@@H]3CC[C@@H]4[C@@H](O)[C@@]3(C[C@@H](O)[C@@]21O)C[C@@]4(C)O | 1.04 | 0.912
NCCCNCCSP(=O)(O)O | 0.972 | 0.961
CN1CCN(c2ccc3ccccc3n2)CC1 | 1.14 | 1.23
Clc1ccc(N2CCN(Cc3c[nH]c4ncccc34)CC2)cc1 | 0.956 and 0.908 | 0.954 and 0.925
CCn1cnc2c(Nc3cccc(Cl)c3)nc(N[C@@H]3CCCC[C@@H]3N)nc21 | 0.587 | 0.595
c1ccc2c(c1)[nH]c1cnccc12 | 1.06 and 0.932 | 1.06 and 0.931
O=C(CCCN1CCC2(CC1)C(=O)N(Cc1cccc(F)c1)CN2c1ccccc1)c1ccc(F)cc1 | 0.93 | 0.783
CCN(CC)C(=O)c1ccc(C2=CC3(CCNCC3)Oc3cccc(O)c32)cc1 | 0.963 and 0.998 | 1.04 and 0.959
O=S1(=O)N(CCN2CC=C(c3c[nH]c4cc(F)ccc34)CC2)c2cccc3c2N1CCC3 | 1.05 | 1.06
N#CC(C#N)=Cc1ccc([N+](=O)[O-])c(O)c1 | 1.17 | 0.925
O=[N+]([O-])OCC(CO[N+](=O)[O-])O[N+](=O)[O-] | 0.829 | 0.825
CN1CC[C@]2(c3cccc(O)c3)Cc3nc4ccccc4cc3C[C@H]2C1 | 1.02 | 1.01
CC(NC(=O)C(N)Cc1ccc(O)cc1)C(=O)NC(Cc1ccccc1)C(=O)NC(Cc1ccccc1)C(N)=O (stereo unspecified) | 1.06 | 1.03
COc1cc2cc(c1Cl)N(C)C(=O)C[C@H](OC(=O)[C@H](C)N(C)C(=O)CCS)[C@]1(C)O[C@H]1[C@H](C)[C@@H]1C[C@@](O)(NC(=O)O1)[C@H](OC)/C=C/C=C(\C)C2 | 0.314 | 0.438
NCC(CP(=O)(O)O)c1ccc(Cl)cc1 (stereo unspecified) | 1 | 0.976
c1ccc(C2CC2)c(OCC2=NCCN2)c1 | 1.01 | 0.882
CN1[C@@H]2CC[C@H]1C[C@@H](OC(c1ccccc1)c1ccccc1N)C2 (stereo partly specified) | 0.825 | 1
